In paper PMC7067772, “Digenic inheritance of mutations in EPHA2 and SLC26A4 in Pendred syndrome” (Nature Communications, 2020):
Like-named read-outs stand apart in the source and are kept apart here. These are yes or no findings as the source states them, for the method shown. Binding seen in cells or lysates may run through a third protein. Some binding calls cover weakened binding; strength is not graded here. For some of these results: Where a sequence is shown, tags or fusion partners need not be part of it.

The chains behind the UniProt entries cited, without tags or fusion partners. Where a name states a change or a piece, a line headed by the entry shows the natural chain unless it says otherwise. A line that says so, or that is headed by a name, gives the form on record, which may keep a tag or linker. Residues count along the entry.
UniProt P52799, residues 28-229: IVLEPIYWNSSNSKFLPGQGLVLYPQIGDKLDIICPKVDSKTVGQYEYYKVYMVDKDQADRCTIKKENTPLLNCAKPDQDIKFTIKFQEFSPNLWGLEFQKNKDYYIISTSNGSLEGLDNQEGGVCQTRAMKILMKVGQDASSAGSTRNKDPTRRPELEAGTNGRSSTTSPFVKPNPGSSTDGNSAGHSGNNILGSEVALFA
UniProt Q03145, residues 26-977: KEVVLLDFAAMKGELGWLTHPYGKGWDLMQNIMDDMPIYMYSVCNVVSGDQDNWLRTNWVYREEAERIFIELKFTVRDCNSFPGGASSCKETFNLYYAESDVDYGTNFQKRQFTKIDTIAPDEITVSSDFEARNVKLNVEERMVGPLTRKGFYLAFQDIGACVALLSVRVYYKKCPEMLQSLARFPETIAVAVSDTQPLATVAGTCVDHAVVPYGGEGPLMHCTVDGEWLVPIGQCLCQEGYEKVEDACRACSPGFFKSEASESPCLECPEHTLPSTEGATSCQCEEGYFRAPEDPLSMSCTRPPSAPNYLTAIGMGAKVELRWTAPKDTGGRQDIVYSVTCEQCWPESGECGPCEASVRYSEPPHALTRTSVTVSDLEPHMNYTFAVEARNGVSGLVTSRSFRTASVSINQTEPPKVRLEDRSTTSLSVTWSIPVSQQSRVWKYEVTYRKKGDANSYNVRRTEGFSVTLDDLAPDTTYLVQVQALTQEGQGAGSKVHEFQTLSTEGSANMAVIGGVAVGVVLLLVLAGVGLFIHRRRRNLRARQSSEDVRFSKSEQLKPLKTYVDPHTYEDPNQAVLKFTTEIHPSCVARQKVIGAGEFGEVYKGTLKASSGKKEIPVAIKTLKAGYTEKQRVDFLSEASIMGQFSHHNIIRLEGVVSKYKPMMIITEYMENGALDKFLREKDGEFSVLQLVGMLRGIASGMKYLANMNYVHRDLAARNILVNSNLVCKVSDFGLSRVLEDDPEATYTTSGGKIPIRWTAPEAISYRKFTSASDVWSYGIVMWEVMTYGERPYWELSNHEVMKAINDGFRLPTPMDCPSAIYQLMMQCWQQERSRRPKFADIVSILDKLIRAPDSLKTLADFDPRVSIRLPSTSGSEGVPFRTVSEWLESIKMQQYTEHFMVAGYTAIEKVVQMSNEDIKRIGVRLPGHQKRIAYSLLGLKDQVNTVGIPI
V5-EphA2 (pcDNA3.2-V5-EphA2) (P29317, residues 24-976): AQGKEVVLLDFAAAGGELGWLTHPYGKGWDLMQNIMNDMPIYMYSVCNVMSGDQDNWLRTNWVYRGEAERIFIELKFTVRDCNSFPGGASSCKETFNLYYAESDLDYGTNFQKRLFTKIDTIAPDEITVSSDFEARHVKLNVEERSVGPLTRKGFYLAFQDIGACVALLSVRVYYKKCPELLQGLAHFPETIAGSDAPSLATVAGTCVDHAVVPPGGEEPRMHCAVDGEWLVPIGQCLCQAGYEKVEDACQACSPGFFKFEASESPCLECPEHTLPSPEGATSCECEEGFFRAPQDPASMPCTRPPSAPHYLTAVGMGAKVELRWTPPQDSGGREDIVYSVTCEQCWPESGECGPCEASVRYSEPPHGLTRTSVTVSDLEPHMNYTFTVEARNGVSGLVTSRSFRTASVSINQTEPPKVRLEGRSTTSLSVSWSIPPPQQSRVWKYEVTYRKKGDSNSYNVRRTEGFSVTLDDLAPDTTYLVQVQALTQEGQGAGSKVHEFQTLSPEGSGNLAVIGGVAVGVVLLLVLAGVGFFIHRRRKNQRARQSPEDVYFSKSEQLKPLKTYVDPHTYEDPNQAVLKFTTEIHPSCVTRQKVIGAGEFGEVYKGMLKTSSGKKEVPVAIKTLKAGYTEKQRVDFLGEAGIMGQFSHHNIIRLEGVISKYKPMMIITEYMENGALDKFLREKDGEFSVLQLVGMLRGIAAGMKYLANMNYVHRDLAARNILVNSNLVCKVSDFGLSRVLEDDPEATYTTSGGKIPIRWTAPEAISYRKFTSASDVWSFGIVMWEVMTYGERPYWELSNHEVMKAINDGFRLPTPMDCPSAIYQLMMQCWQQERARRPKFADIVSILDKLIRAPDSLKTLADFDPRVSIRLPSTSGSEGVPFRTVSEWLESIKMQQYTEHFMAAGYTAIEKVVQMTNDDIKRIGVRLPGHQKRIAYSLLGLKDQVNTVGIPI
V5-EphA2 G355R (P29317, form named): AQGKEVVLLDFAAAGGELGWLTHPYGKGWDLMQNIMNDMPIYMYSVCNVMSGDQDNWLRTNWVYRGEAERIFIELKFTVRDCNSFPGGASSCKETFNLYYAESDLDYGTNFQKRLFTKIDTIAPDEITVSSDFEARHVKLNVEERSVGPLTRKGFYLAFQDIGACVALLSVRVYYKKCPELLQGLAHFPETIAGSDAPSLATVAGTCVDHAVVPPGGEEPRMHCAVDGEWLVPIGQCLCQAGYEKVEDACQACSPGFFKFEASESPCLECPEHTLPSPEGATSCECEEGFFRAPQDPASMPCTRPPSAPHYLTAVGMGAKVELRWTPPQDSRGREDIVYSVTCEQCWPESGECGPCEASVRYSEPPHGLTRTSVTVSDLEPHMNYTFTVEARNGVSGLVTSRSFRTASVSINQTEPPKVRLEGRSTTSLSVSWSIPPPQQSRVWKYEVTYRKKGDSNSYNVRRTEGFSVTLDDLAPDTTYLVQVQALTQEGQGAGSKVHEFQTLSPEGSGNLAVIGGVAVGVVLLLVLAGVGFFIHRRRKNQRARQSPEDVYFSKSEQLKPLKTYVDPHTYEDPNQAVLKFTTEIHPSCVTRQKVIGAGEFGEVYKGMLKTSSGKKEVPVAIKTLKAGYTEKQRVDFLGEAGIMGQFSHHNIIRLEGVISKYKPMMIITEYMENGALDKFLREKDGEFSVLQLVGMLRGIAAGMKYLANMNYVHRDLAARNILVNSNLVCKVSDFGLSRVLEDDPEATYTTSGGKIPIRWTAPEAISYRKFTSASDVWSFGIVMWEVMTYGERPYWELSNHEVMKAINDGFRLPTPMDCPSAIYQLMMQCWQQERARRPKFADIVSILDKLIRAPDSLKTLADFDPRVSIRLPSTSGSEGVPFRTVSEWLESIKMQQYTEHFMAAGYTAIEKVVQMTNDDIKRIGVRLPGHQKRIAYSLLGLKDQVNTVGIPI
V5-EphA2 T511M (P29317, form named): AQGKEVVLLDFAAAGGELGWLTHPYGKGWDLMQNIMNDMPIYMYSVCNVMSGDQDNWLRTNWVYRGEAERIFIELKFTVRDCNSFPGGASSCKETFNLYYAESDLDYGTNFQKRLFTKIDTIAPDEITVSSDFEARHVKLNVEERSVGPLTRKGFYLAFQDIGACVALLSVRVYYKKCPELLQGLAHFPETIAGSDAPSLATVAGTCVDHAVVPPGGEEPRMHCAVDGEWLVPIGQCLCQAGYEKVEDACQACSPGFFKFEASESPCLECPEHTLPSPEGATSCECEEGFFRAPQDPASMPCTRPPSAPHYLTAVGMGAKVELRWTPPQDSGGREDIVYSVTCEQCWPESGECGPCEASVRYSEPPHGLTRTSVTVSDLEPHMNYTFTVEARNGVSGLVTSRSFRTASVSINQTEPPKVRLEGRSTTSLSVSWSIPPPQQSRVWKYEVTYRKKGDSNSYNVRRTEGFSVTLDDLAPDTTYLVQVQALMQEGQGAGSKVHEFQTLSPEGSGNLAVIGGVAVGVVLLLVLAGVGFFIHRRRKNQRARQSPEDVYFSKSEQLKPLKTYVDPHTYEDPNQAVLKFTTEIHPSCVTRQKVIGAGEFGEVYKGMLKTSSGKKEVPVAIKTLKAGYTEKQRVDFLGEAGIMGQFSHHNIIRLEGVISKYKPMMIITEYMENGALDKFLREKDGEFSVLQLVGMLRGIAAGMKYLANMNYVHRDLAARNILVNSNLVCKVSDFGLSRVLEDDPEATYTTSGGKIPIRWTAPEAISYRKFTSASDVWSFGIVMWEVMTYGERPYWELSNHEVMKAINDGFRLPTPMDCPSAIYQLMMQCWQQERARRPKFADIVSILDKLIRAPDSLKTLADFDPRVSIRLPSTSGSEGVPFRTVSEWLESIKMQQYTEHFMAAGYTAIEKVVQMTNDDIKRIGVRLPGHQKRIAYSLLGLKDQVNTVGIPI
UniProt P52800, residues 29-336: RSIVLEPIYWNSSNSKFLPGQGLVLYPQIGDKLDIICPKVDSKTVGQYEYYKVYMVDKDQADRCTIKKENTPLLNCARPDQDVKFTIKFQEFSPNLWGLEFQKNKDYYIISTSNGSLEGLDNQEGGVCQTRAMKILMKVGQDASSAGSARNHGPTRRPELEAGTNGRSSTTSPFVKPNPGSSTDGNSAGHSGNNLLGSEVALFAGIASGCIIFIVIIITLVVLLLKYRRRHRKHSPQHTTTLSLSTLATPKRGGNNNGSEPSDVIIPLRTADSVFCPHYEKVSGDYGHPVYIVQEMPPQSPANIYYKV

T1: myc-tagged pendrin (pCMV-Myc-pendrin) (UniProt O43511)
T1 sequence: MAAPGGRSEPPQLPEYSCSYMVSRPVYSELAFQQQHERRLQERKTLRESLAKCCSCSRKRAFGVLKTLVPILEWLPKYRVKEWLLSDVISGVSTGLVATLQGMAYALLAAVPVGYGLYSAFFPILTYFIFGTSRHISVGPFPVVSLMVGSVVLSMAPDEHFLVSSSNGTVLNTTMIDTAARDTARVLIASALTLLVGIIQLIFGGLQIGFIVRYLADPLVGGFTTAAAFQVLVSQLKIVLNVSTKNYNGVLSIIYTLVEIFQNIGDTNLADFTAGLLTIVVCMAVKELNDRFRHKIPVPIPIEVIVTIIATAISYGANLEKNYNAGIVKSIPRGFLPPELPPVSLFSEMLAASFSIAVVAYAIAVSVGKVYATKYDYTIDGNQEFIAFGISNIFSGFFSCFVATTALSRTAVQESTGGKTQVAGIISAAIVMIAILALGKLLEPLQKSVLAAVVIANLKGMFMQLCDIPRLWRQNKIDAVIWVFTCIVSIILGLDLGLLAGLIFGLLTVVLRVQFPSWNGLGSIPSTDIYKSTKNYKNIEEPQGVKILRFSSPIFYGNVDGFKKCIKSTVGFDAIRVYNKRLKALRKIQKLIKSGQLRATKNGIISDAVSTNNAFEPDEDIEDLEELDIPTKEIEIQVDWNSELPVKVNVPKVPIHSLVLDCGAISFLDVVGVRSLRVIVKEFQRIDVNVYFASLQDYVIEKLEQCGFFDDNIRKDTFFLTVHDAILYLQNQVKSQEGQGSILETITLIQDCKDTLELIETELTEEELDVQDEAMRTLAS


Assays:
[1] = target: T1, myc-tagged pendrin (pCMV-Myc-pendrin); assay: co-IP; HEK293T cells transfected with tagged EphA2 and pendrin constructs; lysis in 50 mM Tris-HCl pH 7.4, 1% Triton X-100, 150 mM NaCl, 1 mM EDTA; anti-c-Myc or anti-FLAG-M2 magnetic beads, 1 h at 4 °C; western blotting
[2] = target: soluble ephrin-B2 extracellular domain-Fc fusion protein (UniProt P52799); assay: pull-down; HEK293T cells transfected with wild type or mutated V5-EphA2 incubated with pre-clustered ephrin-A1 Fc or ephrin-B2 Fc at 37 °C, lysed (1% Triton X-100), dynabeads protein G overnight at 4 °C; western blotting with anti-V5; only the target purified
[3] = target: EphA2 (endogenous, mouse tissues) (mouse (endogenous in kidney, thyroid, inner ear)) (UniProt Q03145); assay: co-IP; mouse tissue lysates (cochlea, thyroid, kidney) in RIPA buffer; anti-EphA2 antibody with dynabeads protein G overnight at 4 °C; western blotting; EphA2 KO mice as control
[4] = target: V5-EphA2 (pcDNA3.2-V5-EphA2) (UniProt P29317); assay: co-IP; HEK293T cells transfected with tagged EphA2 and pendrin constructs; lysis in 50 mM Tris-HCl pH 7.4, 1% Triton X-100, 150 mM NaCl, 1 mM EDTA; anti-c-Myc or anti-FLAG-M2 magnetic beads, 1 h at 4 °C; western blotting
[5] = target: EphA2 (endogenous, mouse tissues) (mouse (endogenous in kidney, thyroid, inner ear)) (UniProt Q03145); assay: co-IP; mouse tissue lysates (cochlea, thyroid, kidney) in RIPA buffer; anti-EphA2 antibody with dynabeads protein G overnight at 4 °C; western blotting; EphA2 KO mice as control; remark: listed apart in the source

binding [1]	binding [2]	further results	Molecule
binds	binds		V5-EphA2 (pcDNA3.2-V5-EphA2) (from UniProt P29317 24-976) (receptor)
binds	no binding		V5-EphA2 G355R (from UniProt P29317 24-976) (receptor)
binds	no binding		V5-EphA2 T511M (from UniProt P29317 24-976) (receptor)
		binding [3]: binds	ephrin-B2 (endogenous, mouse kidney) (from UniProt P52800 29-336) (ligand)
		binding [4]: binds	myc-pendrin S166N (protein, UniProt O43511 1-780) MAAPGGRSEPPQLPEYSCSYMVSRPVYSELAFQQQHERRLQERKTLRESLAKCCSCSRKRAFGVLKTLVPILEWLPKYRVKEWLLSDVISGVSTGLVATLQGMAYALLAAVPVGYGLYSAFFPILTYFIFGTSRHISVGPFPVVSLMVGSVVLSMAPDEHFLVSSNNGTVLNTTMIDTAARDTARVLIASALTLLVGIIQLIFGGLQIGFIVRYLADPLVGGFTTAAAFQVLVSQLKIVLNVSTKNYNGVLSIIYTLVEIFQNIGDTNLADFTAGLLTIVVCMAVKELNDRFRHKIPVPIPIEVIVTIIATAISYGANLEKNYNAGIVKSIPRGFLPPELPPVSLFSEMLAASFSIAVVAYAIAVSVGKVYATKYDYTIDGNQEFIAFGISNIFSGFFSCFVATTALSRTAVQESTGGKTQVAGIISAAIVMIAILALGKLLEPLQKSVLAAVVIANLKGMFMQLCDIPRLWRQNKIDAVIWVFTCIVSIILGLDLGLLAGLIFGLLTVVLRVQFPSWNGLGSIPSTDIYKSTKNYKNIEEPQGVKILRFSSPIFYGNVDGFKKCIKSTVGFDAIRVYNKRLKALRKIQKLIKSGQLRATKNGIISDAVSTNNAFEPDEDIEDLEELDIPTKEIEIQVDWNSELPVKVNVPKVPIHSLVLDCGAISFLDVVGVRSLRVIVKEFQRIDVNVYFASLQDYVIEKLEQCGFFDDNIRKDTFFLTVHDAILYLQNQVKSQEGQGSILETITLIQDCKDTLELIETELTEEELDVQDEAMRTLAS
		binding [5]: binds	Slc26a4 (pendrin) (endogenous, mouse tissues) (protein, UniProt Q9R155 1-780) MAARGGRSEPPQLAEYSCSYTVSRPVYSELAFQQQRERRLPERRTLRDSLARSCSCSRKRAFGVVKTLLPILDWLPKYRVKEWLLSDIISGVSTGLVGTLQGMAYALLAAVPVQFGLYSAFFPILTYFVFGTSRHISVGPFPVVSLMVGSVVLSMAPDDHFLVPSGNGSALNSTTLDTGTRDAARVLLASTLTLLVGIIQLVFGGLQIGFIVRYLADPLVGGFTTAAAFQVLVSQLKIVLNVSTKNYNGILSIIYTLIEIFQNIGDTNIADFIAGLLTIIVCMAVKELNDRFKHRIPVPIPIEVIVTIIATAISYGANLEKNYNAGIVKSIPSGFLPPVLPSVGLFSDMLAASFSIAVVAYAIAVSVGKVYATKHDYVIDGNQEFIAFGISNVFSGFFSCFVATTALSRTAVQESTGGKTQVAGLISAVIVMVAIVALGRLLEPLQKSVLAAVVIANLKGMFMQVCDVPRLWKQNKTDAVIWVFTCIMSIILGLDLGLLAGLLFALLTVVLRVQFPSWNGLGSVPSTDIYKSITHYKNLEEPEGVKILRFSSPIFYGNVDGFKKCINSTVGFDAIRVYNKRLKALRRIQKLIKKGQLRATKNGIISDIGSSNNAFEPDEDVEEPEELNIPTKEIEIQVDWNSELPVKVNVPKVPIHSLVLDCGAVSFLDVVGVRSLRMIVKEFQRIDVNVYFALLQDDVLEKMEQCGFFDDNIRKDRFFLTVHDAILHLQNQVKSREGQDSLLETVARIRDCKDPLDLMEAEMNAEELDVQDEAMRRLAS
		binding [4]: binds	myc-pendrin L117F (protein, UniProt O43511 1-780) MAAPGGRSEPPQLPEYSCSYMVSRPVYSELAFQQQHERRLQERKTLRESLAKCCSCSRKRAFGVLKTLVPILEWLPKYRVKEWLLSDVISGVSTGLVATLQGMAYALLAAVPVGYGFYSAFFPILTYFIFGTSRHISVGPFPVVSLMVGSVVLSMAPDEHFLVSSSNGTVLNTTMIDTAARDTARVLIASALTLLVGIIQLIFGGLQIGFIVRYLADPLVGGFTTAAAFQVLVSQLKIVLNVSTKNYNGVLSIIYTLVEIFQNIGDTNLADFTAGLLTIVVCMAVKELNDRFRHKIPVPIPIEVIVTIIATAISYGANLEKNYNAGIVKSIPRGFLPPELPPVSLFSEMLAASFSIAVVAYAIAVSVGKVYATKYDYTIDGNQEFIAFGISNIFSGFFSCFVATTALSRTAVQESTGGKTQVAGIISAAIVMIAILALGKLLEPLQKSVLAAVVIANLKGMFMQLCDIPRLWRQNKIDAVIWVFTCIVSIILGLDLGLLAGLIFGLLTVVLRVQFPSWNGLGSIPSTDIYKSTKNYKNIEEPQGVKILRFSSPIFYGNVDGFKKCIKSTVGFDAIRVYNKRLKALRKIQKLIKSGQLRATKNGIISDAVSTNNAFEPDEDIEDLEELDIPTKEIEIQVDWNSELPVKVNVPKVPIHSLVLDCGAISFLDVVGVRSLRVIVKEFQRIDVNVYFASLQDYVIEKLEQCGFFDDNIRKDTFFLTVHDAILYLQNQVKSQEGQGSILETITLIQDCKDTLELIETELTEEELDVQDEAMRTLAS
